Test results taken from PubChem BioAssay AID493208 (National Center for Advancing Translational Sciences (NCATS), 2011).
Among all 44,000 compounds or so, about 340 (0.77%) were called active. About 5% were inconclusive and are not listed. The call rests on the fitted dose curve; in most records, active means well fitted inhibition curve with a large enough effect; inconclusive means small, poorly fitted or top-dose-only effect; inactive means flat fitted curve, though single readings scatter. This is one part of the list.

assay: Acumen qHTS Assay for Inhibitors of the mTORC1 Signaling Pathway in MEF (Tsc2-/-, p53-/-) Cells: Sytravon; conditions: phospho-rpS6 immunofluorescence/PI, 24 h; series mostly up to 38.3 µM; activity change, negative = inhibition: at the top concentration;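 further: plate controls were DMSO for no effect and rapamycin for full effect; nearly all actives have a fitted effect of over 50% in size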
How it was run: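 Plate MEFs (Tsc2-/-, p53-/-, empty vector) in DMEM/10% FBS; after 24 h add compound, incubate 24 h at 37 degree Celsius; fix in PFA/TX-100, block, stain phospho-rpS6 and 10 uM PI; scan at 488 nm; report % positive cells.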

| SMILES | activity change, negative = inhibition |
| --- | --- |
| O=C(NCc1cccc(F)c1)c1ccc2nc(N3CCCCC3)sc2c1 | inactive: -5.77% |
| CCOC(=O)C1CCCN(S(=O)(=O)c2cc3c(cc2C)NC(=O)CO3)C1 (configuration not stated) | inactive: 4.67% |
| Cc1ccc(OCC(=O)Nc2ccc3nc(SCC(N)=O)sc3c2)cc1 | inactive: 0.857% |
| COc1ccc(Cn2c(=O)c3oc4ccccc4c3n(Cc3cccc(F)c3)c2=O)cc1 | inactive: -7.78% |
| Cc1c(C)n(C)c2ccc(C(=O)NCCc3ccc(Cl)cc3)cc12 | inactive: -3.6% |
| COC(=O)c1c(C)oc2ccc(N(C(=O)Oc3ccccc3)S(=O)(=O)c3ccc(C(C)(C)C)cc3)cc12 | inactive: 4.77% |
| O=C(NCCc1ccc(Cl)cc1)c1ccc2c(c1)N(Cc1c(F)cccc1Cl)C(=O)CS2 | inactive: 0% |
| Cc1ccc(NC(=O)C2CCCN(S(=O)(=O)c3c(C)n[nH]c3C)C2)cc1Cl (configuration not stated) | inactive: -21.5% |
| CCOC(=O)c1c(NC(=O)C(C)Sc2cn(CCNC(=O)c3ccccc3OC)c3ccccc23)sc2c1CCC2 (configuration not stated) | inactive: -13.1% |
| COC(=O)c1sc2cccc(F)c2c1S(=O)(=O)NCc1ccc(Cl)cc1 | inactive: -17.5% |
| Cc1ccc(-n2nc3ccc(NC(=O)Cc4ccc(Cl)cc4)cc3n2)cc1 | inactive: 0.0278% |
| CCOC(=O)COc1ccc(CC)cc1C(=O)c1ccn2nc(-c3ccc(Cl)cc3)cc2n1 | inactive: 4.87% |
| COc1ccc(-c2noc(N3CCN(c4ccc(C)cc4)C(C)C3)n2)cc1OC (configuration not stated) | inactive: 4.13% |
| COc1cccc(CNC(=O)CSC2=Nc3ccccc3C3=NC(C)C(=O)N23)c1OC (configuration not stated) | inactive: 0% |
| Cc1ccc(CSc2ncc(Cl)c(C(=O)Oc3ccc(F)cc3)n2)cc1 | inactive: 3.32% |
| CCOc1ccc(NC(=O)Cn2c(=O)n(CCCC(=O)NCc3ccc4c(c3)OCO4)c(=O)c3ccccc32)cc1 | inactive: 6.39% |
| Fc1ccc(-c2cc(C(F)(F)F)nc(NCc3ccccc3)n2)cc1 | inactive: 0% |
| O=C(c1ccc2c(c1)N(Cc1ccc(F)cc1)C(=O)c1ccccc1S2(=O)=O)N1CCN(c2ccccn2)CC1 | inactive: 0.117% |
| COc1ccccc1CNC(=O)c1cnc2c(-c3ccccc3)c(C)nn2c1C | inactive: 0.318% |
| CCn1c(=O)n(-c2cccc(Cl)c2)c(=O)c2sc3ccccc3c21 | inactive: -16.1% |
| CCc1nn(CC(=O)N2CCN(c3ccc(Cl)cc3)CC2)c(=O)c2cc3occc3n12 | inactive: -1.64% |
| O=C(Nc1ccc(Cl)cc1)c1cc2nc(-c3ccc4c(c3)OCO4)cc(C(F)(F)F)n2n1 | inactive: 7.74% |
| CC(=O)c1ccc(N2CCN(C(=O)c3cc4ccc5cccnc5c4[nH]3)CC2)cc1 | inactive: -3.61% |
| COc1ccc(C(=O)Nc2ccccc2-c2nc(-c3ccc(OC)cc3)no2)cc1 | inactive: 1.83% |

| SMILES | activity change, negative = inhibition |
| --- | --- |
| O=C(c1cnc(N2CCCCC2)c2ccccc12)N1CCN(c2ccc(Cl)cc2)CC1 | inactive: -11.3% |
| COc1ccc(CCN2CC(C(=O)NCCc3ccccc3)CC2=O)cc1OC (configuration not stated) | inactive: 4.61% |
| COc1ccc(OC)c(/C=C(\C#N)c2nc3ccccc3c(=O)[nH]2)c1 | inactive: -3.1% |
| O=C(CCC(=O)c1ccccc1)Nc1ccc(F)c(Cl)c1 | inactive: 0.57% |
| O=S(=O)(NCCS(=O)(=O)N1CCN(c2ccccc2)CC1)c1ccc(Cl)cc1 | inactive: -2.9% |
| Cc1cccc(NC(=O)C2CCCN(S(=O)(=O)c3ccc4c(c3)oc(=O)n4C)C2)c1 (configuration not stated) | inactive: -0.226% |
| Cc1sc2c(c1C)c(=O)n(CCc1ccccc1)c(=O)n2Cc1ccc(F)cc1 | inactive: -7.23% |
| Cc1ccc(C)c(S(=O)(=O)NCCc2csc(-c3ccc(Cl)cc3)n2)c1 | inactive: -0.0292% |
| CCOC(=O)c1ccc2c(c1)[C@@H]1C=CC[C@@H]1[C@H](c1cccc(OC)c1OC)N2 | inactive: 3.84% |
| Cc1cc(C)c2sc(N(Cc3cccnc3)C(=O)CCOc3ccccc3)nc2c1 | inactive: -9.69% |
| CCCC(=O)C1=C(c2cccc(OC)c2)N(C(=O)CCC)n2c(C)nnc2S1 | inactive: -3.47% |
| Cn1ccc2c(OCC(=O)Nc3ccc([N+](=O)[O-])cc3)cccc2c1=O | inactive: -12.2% |
| CSc1ccc(CNC(=O)CN2C(=O)C3CCCCN3c3ccc(C(=O)N4CCCC4)cc32)cc1 (configuration not stated) | inactive: 1.27% |
| CCOC(=O)C1CCN(C(=O)c2ccc3c(c2)sc2nc(-c4ccc(C)cc4)cn23)CC1 | inactive: -20.5% |
| O=S(=O)(NCc1nc2cccnc2n1Cc1ccc(F)cc1)c1ccc(Cl)s1 | inactive: -3.49% |
| COc1ccc(-c2nc3cc(C(C)C)ccc3o2)cc1NC(=O)c1ccc(C)c(Cl)c1 | inactive: 5.4% |
| COc1ccc(NC(=O)c2cc(S(=O)(=O)NCCC3=CCCCC3)ccc2F)cc1 | inactive: -16.9% |
| COC(=O)c1cc2sc(C)cc2n1CC(=O)Nc1cccc(SC)c1 | inactive: -1.01% |
| Cc1cccc(OCC(=O)Nc2ccc3oc(-c4ccccc4F)nc3c2)c1 | inactive: -2.62% |
| FC(F)(F)c1ccc(-c2noc(-c3ccccc3Br)n2)cc1 | inactive: 1.31% |
| CCc1ccc(NC(=O)C2CCN(S(=O)(=O)c3c(C)noc3/C=C/c3ccco3)CC2)cc1 | inactive: -15.9% |
| CCCCCC(=O)N(c1ccc(OCC)cc1)S(=O)(=O)c1ccc2c(c1)n(C)c(=O)n2C | inactive: -9.71% |
| Cc1ccc(CCNC(=O)c2ccc(CS(=O)(=O)Cc3cccc(C)c3)o2)cc1 | inactive: 6.7% |
